SMILES strings stand for the structures. Out of some 310,000 compounds screened, about 14,000 (4.5%) showed an effect of 50% or more. Effects have a minus sign here. The list shows a part of the results.
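Further: peak tail current of the secondary pulse compared with the same well before compound.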

Chain of human ether-à-go-go-related gene (hERG) potassium channel (Q12809 whole entry, looked up): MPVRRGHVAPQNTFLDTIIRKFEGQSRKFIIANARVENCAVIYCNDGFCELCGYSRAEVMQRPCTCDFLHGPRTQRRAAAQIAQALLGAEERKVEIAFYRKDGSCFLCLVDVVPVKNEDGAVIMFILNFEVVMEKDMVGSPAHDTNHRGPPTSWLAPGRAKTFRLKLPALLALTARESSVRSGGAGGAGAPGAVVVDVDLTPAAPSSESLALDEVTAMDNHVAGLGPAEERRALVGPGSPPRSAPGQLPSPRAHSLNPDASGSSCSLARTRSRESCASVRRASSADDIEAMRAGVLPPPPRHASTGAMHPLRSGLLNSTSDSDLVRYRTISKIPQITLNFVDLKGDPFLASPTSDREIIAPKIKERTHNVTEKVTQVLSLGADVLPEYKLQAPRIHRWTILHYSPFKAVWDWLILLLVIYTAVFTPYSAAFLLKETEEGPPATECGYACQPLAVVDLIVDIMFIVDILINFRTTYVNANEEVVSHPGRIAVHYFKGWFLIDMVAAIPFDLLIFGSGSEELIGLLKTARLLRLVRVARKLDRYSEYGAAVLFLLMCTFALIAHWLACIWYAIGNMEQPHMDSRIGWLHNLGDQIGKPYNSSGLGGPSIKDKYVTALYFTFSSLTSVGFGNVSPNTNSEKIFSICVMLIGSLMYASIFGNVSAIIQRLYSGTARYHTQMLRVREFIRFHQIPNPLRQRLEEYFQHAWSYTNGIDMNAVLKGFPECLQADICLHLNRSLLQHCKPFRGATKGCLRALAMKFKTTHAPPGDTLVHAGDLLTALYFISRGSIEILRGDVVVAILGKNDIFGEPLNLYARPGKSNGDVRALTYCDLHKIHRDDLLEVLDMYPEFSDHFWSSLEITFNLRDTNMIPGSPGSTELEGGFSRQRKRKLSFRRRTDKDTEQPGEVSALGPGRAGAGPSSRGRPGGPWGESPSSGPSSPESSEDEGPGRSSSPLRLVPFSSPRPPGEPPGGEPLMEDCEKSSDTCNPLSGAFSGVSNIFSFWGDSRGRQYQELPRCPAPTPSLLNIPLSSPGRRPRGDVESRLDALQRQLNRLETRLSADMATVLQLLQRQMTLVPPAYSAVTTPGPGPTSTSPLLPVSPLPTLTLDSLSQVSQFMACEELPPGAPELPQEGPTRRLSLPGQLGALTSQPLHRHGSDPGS

This test addresses human ether-à-go-go-related gene (hERG) potassium channel (human, UniProt Q12809). The test is described as follows: primary screen, population patch clamp on CHO cells stably expressing hERG.
For the compound `Nc1nnc(SCC(=O)Nc2cc(S(=O)(=O)N3CCOCC3)ccc2N2CCCC2)s1`, the “hERG current change (%, negative = inhibition) at 10uM” value is on record as -1.6%. Next, `COc1ccc(S(=O)(=O)N2CCC(C)CC2)cc1OC`: 2.09%. Regarding `OC(c1ccc(Cl)cc1)C(O)c1nc2ccccc2[nH]1` (stereo not drawn), the “hERG current change (%, negative = inhibition) at 10uM” value is on record as -2.47%. As for `O=C(COC(=O)c1ccccc1O)NCCCc1ccccc1`, the “hERG current change (%, negative = inhibition) at 10uM” value is given as 19.6%. Next, `CC12CN3CC(C)(CN(C1)C3c1ccc(Cl)cc1Cl)C2O` (stereo not drawn): 2.66%; `CC1(c2nnc(Cc3ccccc3)o2)CC(c2ccncc2)=NO1` (stereo not drawn): 2.48%; `Cc1ccc(Cl)cc1N1CCN(C(=O)c2ccc(NC3=NC4CS(=O)(=O)CC4S3)cc2)CC1` (stereo not drawn): 6.77%. Regarding `O=C(c1ccc2c(c1)OCO2)N1CCC(Cc2ccccc2)CC1`, the “hERG current change (%, negative = inhibition) at 10uM” value is -8.66%. As for `CCOc1ccc(N(CC)S(=O)(=O)c2c(C)[nH]c(=O)[nH]c2=O)cc1`, the “hERG current change (%, negative = inhibition) at 10uM” value is reported as 14%. To `CCn1nc(C)c(CNC(=O)CCc2nnc(Cc3c[nH]c4ccccc34)o2)c1C` belongs 42%; to `Cc1cc(C)cc(N=c2c([N+](=O)[O-])nn(-c3cccc(Cl)c3)n2O)c1`, -6.03%; to `Cc1ccc(N2C(=O)[C@@H]3C(C(=O)CCN4C(=O)c5ccccc5C4=O)=NN[C@@H]3C2=O)cc1`, 3.3%. Consider `Cn1c(=O)c2ccccc2n(Cc2ccccc2F)c1=O`, for which the “hERG current change (%, negative = inhibition) at 10uM” value came to 6.5%. To `O=C(Nc1ccccc1C(F)(F)F)NC1CCCCC1` belongs -4.88%.

For `COc1ccccc1-n1c(C)nnc1SCC(=O)Nc1cc(C)cc(C)c1`, the “hERG current change (%, negative = inhibition) at 10uM” value was -3.62%. Turning to `COc1cc(C(=O)N/N=C/c2cn(Cc3ccccc3)c3ccccc23)ccc1O`, the “hERG current change (%, negative = inhibition) at 10uM” value is given as -1.08%.

With `CCNc1nc(NC(C)C)nc(N(C#N)C(C)C(=O)N(C)C)n1` (stereo not drawn), the “hERG current change (%, negative = inhibition) at 10uM” value is reported as 6.85%. To `CC(=O)NC(=C(Cl)Cl)S(=O)(=O)c1ccccc1` belongs 23.9%. To `COc1ccc(S(=O)(=O)Nc2cc(C(C)C)c(O)cc2C)cc1` belongs -2.38%; to `CC1CCCCN1C(=O)CN1C(=O)NC2(CCCCC2C)C1=O` (stereo not drawn), 12.1%. Next, `O=C(CSc1nnc(-c2ccc(O)cc2)n1Cc1ccco1)c1cccs1`: -14.9%; `COc1ccc(NC(=O)CSc2nc3c(c(=O)n2-c2ccccc2OC)SCC3)cc1`: -5.73%; `O=C(NN1C(=O)C2C3CCC(O3)C2C1=O)c1ccc(Br)o1` (stereo not drawn): -5.06%. Consider `CNC(=O)c1ccc(NC(=O)/C=C/c2cccc(F)c2)cc1`, for which the “hERG current change (%, negative = inhibition) at 10uM” value is -18.3%.

`CNC(=O)c1c(NC(=O)C2=COCCO2)sc2c1CCN(C(=O)OC)C2`: the “hERG current change (%, negative = inhibition) at 10uM” value was -3.53%.

As for `O=C(CSc1nnc(CNC(=O)c2ccccc2F)o1)NCc1ccco1`, the “hERG current change (%, negative = inhibition) at 10uM” value was found to be 8.92%. Next, `N#Cc1ccccc1Cn1cc(/C=N/Nc2ccc([N+](=O)[O-])cn2)c2ccccc21`: 7.73%; `CN(C)S(=O)(=O)c1cccc2nsnc12`: 34.9%; `CCOc1ccc(-n2c(=S)sc3c(=O)[nH]c(SCC(=O)NC(C)CC)nc32)cc1` (stereo not drawn): 17.5%. Regarding `CCOC(=O)c1c(-c2ccc(C)o2)csc1NC(=O)CN1CCN(CC)CC1`, the “hERG current change (%, negative = inhibition) at 10uM” value is recorded as -43.5%. To `CC(C)(C)c1n[nH]c2c1CCCC2` belongs 3.89%; to `Brc1ccc(CN2CCN(c3ccccn3)CC2)s1`, -5.6%. Turning to `CCNC(=S)N1CCN(C(=O)c2ccco2)CC1`, the “hERG current change (%, negative = inhibition) at 10uM” value was found to be 5.8%. Next, `C=CCOc1ccccc1C1C2=C(CC(C)(C)CC2=O)Nc2c1c(=O)n(C)c(=O)n2C` (stereo not drawn): -3.8%; `COc1ccc(N2CCN(C(=O)C3CCCN(S(=O)(=O)c4cccc5cccnc45)C3)CC2)cc1` (stereo not drawn): -32.1%; `COc1ccc(NS(=O)(=O)c2ccc(N3CC(O)=C(c4ccccc4)C3=N)cc2)cc1`: 2.86%.

In the case of `COc1ccccc1NC(=S)N1CCN(Cc2ccccc2)CC1`, the “hERG current change (%, negative = inhibition) at 10uM” value stood at 6.91%. Next, `CC(C)CC(=O)Nc1ccc(-c2cn3cccnc3n2)cc1`: 26.3%; `Cc1ccc(Oc2coc3cc(O)ccc3c2=O)cc1`: 12.7%; `Nc1nc(SCc2c(Cl)cccc2Cl)n[nH]1`: 11.4%. On to `COc1ccccc1Nc1nc(C)cc(C)n1`, for which the “hERG current change (%, negative = inhibition) at 10uM” value stood at 13.3%. Next, `COc1cccc(-c2cn(-c3cccc(C(F)(F)F)c3)c(=S)[nH]2)c1`: 20.4%; `CC1=C(C(=O)Nc2ccc(Cl)cc2)C(c2ccncc2)C(C#N)=C(SCC(N)=O)N1` (stereo not drawn): 4.33%; `O=C(CNC(=O)c1ccccc1F)OCC(=O)N1CCCCC1`: 4.46%.

`O=C(CCc1nnc(C2(c3ccc(Cl)cc3)CCC2)o1)NCCCn1cccn1`: the “hERG current change (%, negative = inhibition) at 10uM” value was -5.52%. As to `CCc1ccccc1NC(=O)C1CCN(c2cnccn2)CC1`, the “hERG current change (%, negative = inhibition) at 10uM” value came to 4.06%. Next, `CCCc1cc(=O)[nH]c(SCC(=O)Nc2ccc([N+](=O)[O-])cc2C#N)n1`: -29.3%; `O=C(COc1ccc(Br)cc1)N(Cc1ccco1)C1CCS(=O)(=O)C1` (stereo not drawn): -50.6%. Next, `Cc1cccc(NS(=O)(=O)c2cc(C(=O)N3CCCC3)ccc2Cl)c1`: -4.21%; `O=C(CCS(=O)(=O)c1ccccc1)N1CCN(c2cccc(C(F)(F)F)c2)CC1`: -43.1%; `CC(C)CC(=O)N1CCN(S(=O)(=O)c2ccc(F)cc2)CC1`: -1.89%. Next, `Cc1cc(C)n2nc(SCC(=O)N3CCc4ccccc43)nc2n1`: -3.06%.

Consider `O=C(NC1CCCCC1)c1cc(-c2ccc(O)cc2)on1`, for which the “hERG current change (%, negative = inhibition) at 10uM” value stood at 0.886%.

Take `Cc1ccnc(NC(=O)c2ccc(Cl)s2)c1`: the “hERG current change (%, negative = inhibition) at 10uM” value turned out to be 11.6%. Next, `O=S(=O)(NC(=S)c1ccccc1)c1ccc(F)cc1`: 16.5%; `CCn1c2ccccc2c2cc(NC(=O)c3cc(OC)cc(OC)c3)ccc21`: -0.116%. To `C1CCC2CCCCC2C1` (stereo not drawn) belongs 26.3%. Next, `COc1cccc2c(=O)cc(C)n(CC(=O)Nc3ccc(Br)cc3)c12`: 12.8%; `COC/C=C/C1=CC2=CC(=O)C(C)(OC(=O)c3cccs3)C(=O)C2=CO1` (stereo not drawn): 21.2%.

Turning to `c1ccc(-c2nc(CSc3n[nH]c(-c4cccs4)n3)cs2)cc1`, the “hERG current change (%, negative = inhibition) at 10uM” value was -15.1%. To `Cc1cc(N2CCOCC2)n2nc(C)c(-c3ccccc3)c2n1` belongs 9.17%. To `COc1ccc(-n2c(=O)[nH]cc(C(=O)Nc3ccc4c(c3)OCCO4)c2=O)cc1` belongs 8.51%. Consider `N#CCCN(C(=O)COC(=O)CNS(=O)(=O)c1ccc2ccccc2c1)c1ccccc1`, for which the “hERG current change (%, negative = inhibition) at 10uM” value is listed as -3.85%. To `CC(C)c1ccc(C2CC(=O)c3cnc(NC(=O)c4ccco4)nc3C2)cc1` (stereo not drawn) belongs -2.44%; to `C=C(Cl)CSC(=S)N(CC)CC`, 12.1%; to `COc1ccc(C2C(C(=O)NCC3CCCO3)c3cc(OC)c(OC)cc3C(=O)N2C)cc1OC` (stereo not drawn), 2.52%. To `O=C(Oc1ccc(/C=N/NC(=O)c2ccccc2F)cc1)c1ccccc1` belongs 10.3%; to `COc1cc(C(=S)N2CCCC2)cc(Cl)c1O`, 6.77%. To `O=C(CN1C(=O)NC2(CCCc3ccccc32)C1=O)NC1CCCCC1` (stereo not drawn) belongs 4.92%. As for `CC(NC(=O)c1cccs1)c1ccc(Br)cc1` (stereo not drawn), the “hERG current change (%, negative = inhibition) at 10uM” value was determined as 3.75%. Next, `C/C(=N/NC(=O)CNC(=O)C1COc2ccccc2O1)c1ccc([N+](=O)[O-])cc1` (stereo not drawn): -64.7%. Next, `O=C(Nc1ccc(Cl)cc1F)c1ccc(-n2cncn2)cc1`: -4.64%; `CC1C/C(=N/NC(=O)c2cccc(F)c2)c2ccc(O)cc2C1` (stereo not drawn): -14.1%; `Cc1cc2oc(C(=O)Nc3ccc(S(=O)(=O)Nc4nccs4)cc3)cc(=O)c2cc1Cl`: -14.5%. Next, `CCc1nc2ccccc2n1Cc1ccccc1F`: 11%; `CCS(=O)(=O)Nc1cccc(-c2ccc3nnc(-c4cccnc4)n3n2)c1`: -4.03%.

Consider `Cc1sc(N(C(=O)CCc2ccccc2)c2ccc(C(=O)O)cc2)nc1-c1ccccc1`, for which the “hERG current change (%, negative = inhibition) at 10uM” value was 17.3%. Regarding `O=C(CN1C(=O)CCS(=O)(=O)c2ccccc21)Nc1ccc(Cl)cc1`, the “hERG current change (%, negative = inhibition) at 10uM” value was -1.64%.

For `Cc1ccc(OC(C)C(=O)Nc2ccc(F)cc2)c([N+](=O)[O-])n1` (stereo not drawn), the “hERG current change (%, negative = inhibition) at 10uM” value is -19.8%. Take `COC(=O)[C@@H]1[C@@H](C(=O)OC)C2(c3ccccc3-c3ccccc32)N(c2ccc(Cl)cc2)N1C#N`: the “hERG current change (%, negative = inhibition) at 10uM” value was -5.5%. Next, `Cc1c(NC(=O)C(C)N2C(=O)C3C4C=CC(C4)C3C2=O)c(=O)n(-c2ccccc2)n1C` (stereo not drawn): 14.7%; `COc1cc(C=O)ccc1OCCOCCOc1ccc(Cl)cc1Cl`: -11.1%; `CCOC(=O)Cc1csc(NC(NC(=O)OCC)(C(F)(F)F)C(F)(F)F)n1`: 2.83%.

On to `COc1ccccc1CC1C(=O)C2CCN1CC2` (stereo not drawn), for which the “hERG current change (%, negative = inhibition) at 10uM” value turned out to be 14.5%.

Turning to `Cc1c(Cl)cccc1NC(=O)C1NC(=O)CC1c1ccccc1` (stereo not drawn), the “hERG current change (%, negative = inhibition) at 10uM” value is 8.73%. `COC(=O)C1CCN(C(=O)c2cc3ccccc3oc2=O)CC1`: the “hERG current change (%, negative = inhibition) at 10uM” value is -7.44%. In the case of `Cc1ccsc1C(=O)NC(C)c1ccccc1` (stereo not drawn), the “hERG current change (%, negative = inhibition) at 10uM” value came out at 17.6%.

For the compound `O=C(CCSCc1cccc(F)c1)NCCc1ccccc1`, the “hERG current change (%, negative = inhibition) at 10uM” value was found to be 2.11%.

As for `O=C(CSc1nnc(CNC(=O)c2ccco2)o1)Nc1cccc(F)c1`, the “hERG current change (%, negative = inhibition) at 10uM” value worked out at 6.05%. Regarding `CC(=O)c1cccc(NC(=O)CCn2c(=S)oc3ccccc32)c1`, the “hERG current change (%, negative = inhibition) at 10uM” value was found to be 9.8%.
